Target: T1, human FcγRIIa(R) (allotype R131) (human, UniProt P12318 36-217)
T1 construct: Soluble analyte in SPR; also called hFcgRIIa(R); FcgRIIaR
T1 chain: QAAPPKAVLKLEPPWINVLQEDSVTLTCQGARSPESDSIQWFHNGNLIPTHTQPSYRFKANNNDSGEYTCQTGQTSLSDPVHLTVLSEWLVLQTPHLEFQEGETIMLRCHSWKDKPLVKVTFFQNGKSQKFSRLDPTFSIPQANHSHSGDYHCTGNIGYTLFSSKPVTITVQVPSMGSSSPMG
Test: SPR (Biacore T100), antibody captured by Protein L, FcγR as analyte, pH 7.4, 25 C

B1: antibody containing VH3-IgG1-F648 for the heavy chain and L(WT)-CK for the light chain (antibody)
heavy: QVQLQESGPGLVKPSETLSLTCAVSGHSISHDHAWSWVRQPPGEGLEWIGFISYSGITNYNPSLQGRVTISRDNSKNTLYLQMNSLRAEDTAVYYCARSLARTTAMDYWGEGTLVTVSS[no letters for human IgG1 constant region with P238D (EU numbers)]
light: DIQMTQSPSSLSASVGDRVTITCRASQDISSYLNWYQQKPGKAPKLLIYYTSRLHSGVPSRFSGSGSGTDFTFTISSLQPEDIATYYCQQGNTLPYTFGQGTKVEIKRTVAAPSVFIFPPSDEQLKSGTASVVCLLNNFYPREAKVQWKVDNALQSGNSQESVTEQDSKDSTYSLSSTLTLSKADYEKHKVYACEVTHQGLSSPVTKSFNRGEC
notes: VH3-IgG1 with P238D (EU numbering)
BINDING AMOUNT (RU): 12.2 RU

Reference: US20230257470A1 (published 2023)
